In PubChem BioAssay (NCI):
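48-hour exposure; five concentrations; linearly interpolated endpoints. TGI: concentration producing complete growth inhibition.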 The source holds more than one record for some entries. The other results are left out here. An entry can have further records. A record mostly stands for its own series of concentrations, not given here; a value can be the end of its range. *1 amine or outer side, *2 acyl side, *3 side chain or, on linkers, in order; H or OH if unused. Where a SMILES comes first, the peptide text is derived from it. Bridges are numbered along the chain shown (N, C = ends). Roman numbers before positions name the chains, in order. [ ]: non-standard residue; d: D form. Actinocin(1to9) = Cc1c2oc3c(C)ccc(C(=O)[*:2])c3nc-2c(C(=O)[*:1])c(N)c1=O; NMeV = CN[CH](C(=O)O)C(C)C; Sar = CNCC(=O)O

Key:
Test in all cases: inhibition of tumour cell growth, NCI panel, 48 h
UACC-62 melanoma = tested on: UACC-62 melanoma
K-562 leukemia = tested on: K-562 leukemia
NCI-H226 lung = tested on: NCI-H226 lung
SK-MEL-5 melanoma = tested on: SK-MEL-5 melanoma
NCI-H522 lung = tested on: NCI-H522 lung
CCRF-CEM leukemia = tested on: CCRF-CEM leukemia
DMS 114 small cell lung = tested on: DMS 114 small cell lung
EKVX NSCLC = tested on: EKVX NSCLC
MCF7 breast = tested on: MCF7 breast
SF-268 CNS = tested on: SF-268 CNS
MOLT-4 leukemia = tested on: MOLT-4 leukemia
CAKI-1 renal = tested on: CAKI-1 renal
OVCAR-5 ovarian = tested on: OVCAR-5 ovarian
A549 NSCLC = tested on: A549 NSCLC
RPMI-8226 leukemia = tested on: RPMI-8226 leukemia
IGROV1 ovarian = tested on: IGROV1 ovarian
TK-10 renal = tested on: TK-10 renal
SN12C renal = tested on: SN12C renal
HCC-2998 colon = tested on: HCC-2998 colon

Compound: O=C1NC(c2cccc3ccccc23)Nc2ccc(Cl)cc21 (centres undefined)
- TGI (UACC-62 melanoma): 2.9 nM and 51 µM
- TGI (K-562 leukemia): 1.45 nM and > 100 µM
- TGI (NCI-H226 lung): 43 nM and 26.5 µM
- TGI (SK-MEL-5 melanoma): 34.5 nM and 432 nM
- TGI (NCI-H522 lung): 7.51 nM and 1.32 µM

Compound: CC[C@@]1(O)C(=O)OCc2c1cc1n(c2=O)Cc2cc3cc(O)ccc3nc2-1
- TGI (CCRF-CEM leukemia): 10.9 nM and 1.37 µM
- TGI (DMS 114 small cell lung): 1.18 µM and 71.1 nM
- TGI (EKVX NSCLC): 1.05 µM and 29.2 µM
- TGI (MCF7 breast): 3.55 µM and > 100 µM
- TGI (SF-268 CNS): 61.1 nM [mean of 3 tests] and 3.2 µM [mean of 5 tests]
- TGI (MOLT-4 leukemia): 23.7 nM and 1.06 µM
- TGI (CAKI-1 renal): 23.1 nM and 693 nM
- TGI (OVCAR-5 ovarian): 240 nM and 8.86 µM

Compound: COc1ccc(CC2NC(=O)C(NC(=O)c3c4nc5c(C(=O)NC6C(=O)NC(Cc7ccc(OC)cc7)C(=O)N7CCCC7C(=O)N(C)CC(=O)N(C)C(C(C)C)C(=O)OC6C)ccc(C)c5oc-4c(C)c(=O)c3N)C(C)OC(=O)C(C(C)C)N(C)C(=O)CN(C)C(=O)C3CCCN3C2=O)cc1 (centres undefined) (I: TY(Me)P[Sar][NMeV] / II: TY(Me)P[Sar][NMeV]; ester I:1-I:C, II:1-II:C; linker I:N-II:N via Actinocin(1to9); configuration not given here)
- TGI (A549 NSCLC): 5.77 µM and > 100 µM
- TGI (RPMI-8226 leukemia): < 1 nM and > 100 µM
- TGI (IGROV1 ovarian): 28.4 nM and 1.24 µM
- TGI (TK-10 renal): 2.55 µM and 84 nM
- TGI (SN12C renal): 365 nM and > 100 µM
- TGI (HCC-2998 colon): 1.03 µM and > 100 µM
